These results are taken from PMC9511441, “Semisynthetic teicoplanin derivatives with dual antimicrobial activity against SARS-CoV-2 and multiresistant bacteria” (Scientific Reports, 2022).

In experiment [1] the target is T1, SARS-CoV-2 spike receptor-binding domain (S-RBD) and human ACE2 receptor (hACE2) (Homo sapiens, UniProt Q9BYF1). Briefly: biochemical. The following applies: read-out: ACE2-spike interaction % inhibition at 100 µM.
The target of experiment [2] is T1, SARS-CoV-2 spike receptor-binding domain (S-RBD) and human ACE2 receptor (hACE2).

In general, inhibition refers to the share of the control response that was lost under treatment.

For the compound `O=C(O)CCC(F)(F)C(F)(F)C(F)(F)C(F)(F)C(F)(F)C(F)(F)C(F)(F)C(F)(F)F` [Compound 14], the inhibition at 100 µM in experiment [1] came to 5.7 ± 5.3%. Same read-out and setting: the figure for `N=C(N)NCCSCCCOc1cc(C(=O)OCc2ccccc2)cc(OCCCSCCNC(=N)N)c1OCCCSCCNC(=N)N` [Compound 24] is 7.4 ± 12%. Consider teicoplanin [reference compound], for which the “ACE2-spike interaction % inhibition at 100 µM” value in experiment [2] was determined as 34 ± 7%.
